# In the supplement of paper PMC8728848:
# This is one part of the list.
# B1: Mannose Binding Protein (Lactobacillus plantarum) (protein)
# chain: AERSEAALTHVDKDNFLKYFSLNGSATYDAKTGIVTITPNQNNQVGNFSLTSKIDMNKSFTLTGQVNLGSNPNGADGIGFAFHSGNTTDVGNAGGNLGIGGLQDAIGFKLDTWFNSYQAPSSDKNGSEISSTNSNGFGWNGDSANAPYGTFVKTSNQEISTANGSKVQRWWAQDTGESQALSKADIDGNFHDFVVNYDGATRTLTVSYTQASGKVLTWKTTVASSYQAMAMVVSASTGAAKNLQQFKLTSFDFQEAATVNVKYVDTTGHQLAQG
# How the values were obtained:
# Experiment in all cases: glycan array binding signal (z-score within array); higher = stronger binding
# Conditions in all cases: glycan notation: IUPAC condensed, linker removed
# [1] = target: Neu5Ac(a2-6)Gal(b1-4)GlcNAc(b1-2)Man(a1-3)[GlcNAc(b1-2)Man(a1-6)]Man(b1-4)GlcNAc(b1-4)GlcNAc
# Summary of the method: (§1)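 The binding signal is a Z-score computed within each array and averaged over linkers. Arrays of the same protein sequence at different concentrations or buffers were also averaged together. Data originate from 3228 arrays in the Consortium for Functional Glycomics database, kept only where the protein sequence was available.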
# [2] = target: Neu5Ac(a2-6)Gal(b1-4)GlcNAc(b1-2)Man(a1-3)[GlcNAc(b1-2)Man(b1-4)GlcNAc(b1-2)Man(a1-6)]Man(b1-4)GlcNAc(b1-4)GlcNAc
# Summary of the method: as §1
# [3] = target: Neu5Ac(a2-6)Gal(b1-4)GlcNAc(b1-2)Man(a1-3)[Neu5Ac(a2-6)Gal(b1-4)GlcNAc(b1-2)Man(a1-6)]Man(b1-4)GlcNAc(b1-4)GlcNAc
# Summary of the method: as §1
# [4] = target: Neu5Ac(a2-6)Gal(b1-4)GlcNAc(b1-2)Man(a1-6)[Gal(b1-4)GlcNAc(b1-2)Man(a1-3)]Man(b1-4)GlcNAc(b1-4)GlcNAc
# Summary of the method: as §1
# [5] = target: Neu5Ac(a2-6)Gal(b1-4)GlcNAc(b1-2)Man(a1-6)[GlcNAc(b1-2)Man(a1-3)]Man(b1-4)GlcNAc(b1-4)GlcNAc
# Summary of the method: as §1
# [6] = target: Neu5Ac(a2-6)Gal(b1-4)GlcNAc(b1-3)Gal(b1-4)GlcNAc
# Summary of the method: as §1
# [7] = target: Neu5Ac(a2-6)Gal(b1-4)GlcNAc(b1-3)Gal(b1-4)[Fuc(a1-3)]GlcNAc(b1-3)Gal(b1-4)[Fuc(a1-3)]GlcNAc
# Summary of the method: as §1
# [8] = target: Neu5Ac(a2-6)Gal(b1-4)GlcNAc6S
# Summary of the method: as §1
# Neu5Ac(a2-6)GalNAc = target: Neu5Ac(a2-6)GalNAc
# Summary of the method: as §1
# [9] = target: Neu5Ac(a2-6)GalNAc(b1-4)GlcNAc
# Summary of the method: as §1
# Neu5Ac(a2-8)Neu5Ac = target: Neu5Ac(a2-8)Neu5Ac
# Summary of the method: as §1
# [10] = target: Neu5Ac(a2-8)Neu5Ac(a2-3)Gal(b1-4)Glc
# Summary of the method: as §1
# [11] = target: Neu5Ac(a2-8)Neu5Ac(a2-3)[GalNAc(b1-4)]Gal(b1-4)Glc
# Summary of the method: as §1
# [12] = target: Neu5Ac(a2-8)Neu5Ac(a2-8)Neu5Ac
# Summary of the method: as §1
# [13] = target: Neu5Ac(a2-8)Neu5Ac(a2-8)Neu5Ac(a2-3)Gal(b1-4)Glc
# Summary of the method: as §1
# [14] = target: Neu5Ac(a2-8)Neu5Ac(a2-8)Neu5Ac(a2-3)[GalNAc(b1-4)]Gal(b1-4)Glc
# Summary of the method: as §1
# [15] = target: Neu5Ac(a2-8)Neu5Ac(a2-8)Neu5Ac(a2-8)Neu5Ac(a2-3)[GalNAc(b1-4)]Gal(b1-4)Glc
# Summary of the method: as §1
# [16] = target: Neu5Ac(b2-6)Gal(b1-4)GlcNAc
# Summary of the method: as §1
# Neu5Ac(b2-6)GalNAc = target: Neu5Ac(b2-6)GalNAc
# Summary of the method: as §1
# [17] = target: Neu5Ac9Ac(a2-6)Gal(b1-4)GlcNAc
# Summary of the method: as §1
# [18] = target: Neu5Gc(a2-3)Gal(b1-3)GlcNAc
# Summary of the method: as §1
# [19] = target: Neu5Gc(a2-3)Gal(b1-3)[Fuc(a1-4)]GlcNAc
# Summary of the method: as §1
# Neu5Gc(a2-3)Gal(b1-4)Glc = target: Neu5Gc(a2-3)Gal(b1-4)Glc
# Summary of the method: as §1
# [20] = target: Neu5Gc(a2-3)Gal(b1-4)GlcNAc
# Summary of the method: as §1
# [21] = target: Neu5Gc(a2-3)Gal(b1-4)[Fuc(a1-3)]GlcNAc
# Summary of the method: as §1
# [22] = target: Neu5Gc(a2-6)Gal(b1-4)GlcNAc
# Summary of the method: as §1
# Neu5Gc(a2-6)GalNAc = target: Neu5Gc(a2-6)GalNAc
# Summary of the method: as §1
# [23] = target: Neu5Gc(b2-6)Gal(b1-4)GlcNAc
# Summary of the method: as §1
binder,measurement,setting,value
B1,glycan array binding signal (z-score),[1],-0.444
same,glycan array binding signal (z-score),[2],-0.034
same,glycan array binding signal (z-score),[3],-0.324
same,glycan array binding signal (z-score),[4],-0.361
same,glycan array binding signal (z-score),[5],-0.302
same,glycan array binding signal (z-score),[6],0.585
same,glycan array binding signal (z-score),[7],-0.31
same,glycan array binding signal (z-score),[8],-0.082
same,glycan array binding signal (z-score),Neu5Ac(a2-6)GalNAc,-0.316
same,glycan array binding signal (z-score),[9],-0.321
same,glycan array binding signal (z-score),Neu5Ac(a2-8)Neu5Ac,0.641
same,glycan array binding signal (z-score),[10],0.041
same,glycan array binding signal (z-score),[11],-0.567
same,glycan array binding signal (z-score),[12],-0.331
same,glycan array binding signal (z-score),[13],-0.398
same,glycan array binding signal (z-score),[14],-0.716
same,glycan array binding signal (z-score),[15],0.503
same,glycan array binding signal (z-score),[16],0.144
same,glycan array binding signal (z-score),Neu5Ac(b2-6)GalNAc,-0.422
same,glycan array binding signal (z-score),[17],-0.315
same,glycan array binding signal (z-score),[18],-0.785
same,glycan array binding signal (z-score),[19],-0.793
same,glycan array binding signal (z-score),Neu5Gc(a2-3)Gal(b1-4)Glc,0.178
same,glycan array binding signal (z-score),[20],-0.358
same,glycan array binding signal (z-score),[21],-0.269
same,glycan array binding signal (z-score),[22],-0.388
same,glycan array binding signal (z-score),Neu5Gc(a2-6)GalNAc,-0.2
same,glycan array binding signal (z-score),[23],1.04
